The source of these data is the antibiotic and cytotoxicity screens of Wong et al. (2023).

The other results are listed elsewhere or left out.

One experiment has as its system HSkMC. Put plainly: cytotoxicity call (relative viability < 0.9). The settings on record: 10 µM.
A further experiment has as its system HepG2. The experiment in a line: cytotoxicity call (relative viability < 0.9). The settings on record: 10 µM.
The subject of the next experiment is S. aureus RN4220. The experiment in a line: growth inhibition call (relative growth <= 0.2). The settings on record: 50 µM.

Regarding `COc1ccc2c3c(n(c2c1)C)[C@H](CO)N(C[C@]13CN(C1)S(=O)(=O)c1cn(cn1)C)C(=O)Nc1ccc(cc1)F`, the cytotoxicity call in the experiment on HSkMC and with HepG2 was “inactive” in each case. Moreover, in the experiment on S. aureus RN4220, the growth inhibition call was “inactive”.

`Cc1noc(C)c1NC(=O)N(C)C[C@H]1Oc2ccc(NC(=O)CCN3CCOCC3)cc2CC(=O)N([C@@H](C)CO)C[C@H]1C`: the cytotoxicity call with HSkMC and with HepG2 was “inactive” in each case. The growth inhibition call with S. aureus RN4220 was “inactive”.

For the compound `C[C@@H]1CCCCO[C@H](CN(C)C(=O)NC2CCCCC2)[C@H](C)CN([C@@H](C)CO)C(=O)c2cc(NC(=O)Nc3ccc(F)cc3)ccc2O1`, the cytotoxicity call in the experiment on HSkMC and in the experiment on HepG2 was “inactive” throughout. In the experiment with S. aureus RN4220, the growth inhibition call was “inactive”.

`C[C@H]1CN([C@@H](C)CO)C(=O)c2c(c3ccccc3n2C)-c2ccccc2CO[C@@H]1CN(C)Cc1ccc2c(c1)OCO2`: the cytotoxicity call in the experiment with HSkMC and in the experiment on HepG2 was “inactive” throughout. Also, in the experiment with S. aureus RN4220, the growth inhibition call was “inactive”.

As to `C[C@H]1CN([C@@H](C)CO)C(=O)Cc2cc(NC(=O)CCN3CCOCC3)ccc2O[C@@H]1CN(C)S(=O)(=O)c1ccccc1`, the cytotoxicity call with HSkMC and with HepG2 was “inactive” in each case. Also, the growth inhibition call with S. aureus RN4220 is “inactive”.

Consider `COc1ccc(cc1)S(=O)(=O)N1CC[C@]2(CC1)CN([C@H](CO)c1c2c2ccc(cc2n1C)OC)C(=O)CN(C)C`, for which the cytotoxicity call in the experiment on HSkMC and in the experiment with HepG2 was “active” each time. For the same compound, in the experiment on S. aureus RN4220, the growth inhibition call was “inactive”.

On to `CC(C)(C)OC(=O)CC[C@]1(C(=O)NC[C@@H](O)CO)COC(c2ccc(OCCCO)cc2)=N1`, for which the cytotoxicity call with HSkMC and in the experiment on HepG2 was “inactive” each time. For the same compound, the growth inhibition call in the experiment with S. aureus RN4220 was “inactive”.

For `C[C@H](CO)N1C[C@H](C)[C@H](CN(C)S(=O)(=O)c2cccs2)Oc2ccc(NS(=O)(=O)c3ccc(F)cc3)cc2C1=O`, the cytotoxicity call with HSkMC and in the experiment with HepG2 was “inactive” each time. The growth inhibition call with S. aureus RN4220 is “inactive”.

Take `O=C(O)c1cc2cccnc2[nH]c1=O`: the cytotoxicity call in the experiment with HSkMC and in the experiment with HepG2 was “inactive” throughout. Further, the growth inhibition call with S. aureus RN4220 is “inactive”.

Take `COc1ccc(S(=O)(=O)Nc2ccc3c(c2)CC(=O)N([C@@H](C)CO)C[C@@H](C)[C@@H](CN(C)S(=O)(=O)c2cccs2)O3)cc1`: the cytotoxicity call in the experiment on HSkMC (human skeletal muscle cells) and with HepG2 was “inactive” each time. Besides, in the experiment on S. aureus RN4220, the growth inhibition call is “inactive”.
